The source gives no read counts; variants with many changes may rest on few reads.

B1: LINE1-mini (parent)
chain: GGCAGAGCUCAACACAGCGUGGCAAAGUGGCUGUGGCUAGACUGCC

This data set covers variants of B1. Nature of the data set: self-cleavage, relative activity (ratio to wild type); higher = more cleavage; in vitro, sequencing; the parent is a self-cleaving ribozyme.
As for G1U G17U G29U G30C G40U C46A, the self-cleavage was found to be 0.03.
With G1U C37A U38G A41G, the self-cleavage was 0.
For the variant G1U U9G G17C C18A G27U, the self-cleavage stood at 0.02.
Consider G1U G22A U38C C45U, for which the self-cleavage was 0.26.
Take G1U C31A C42U U43C: the self-cleavage worked out at 0.02.
In the case of G1U C15G G35C G44U, the self-cleavage was 0.01.
The result for G1U G7C G33A G44C reads 0.06.
The result for G1U G5U A39G reads 0.08; that for G1U U20A C31A U38A, 0.
As to G1U G5A C18U C23A, the self-cleavage came out at 0.06.
On to G1U U38G U43A, for which the self-cleavage is 0.
The result for G1U U28G C31A U38A reads 0.1.
Consider G1U G17C A41U, for which the self-cleavage came to 0.04.
Under G1U G17C A41C stands 0.02.
The result for G1U U9A C13G A25G G30U G36C C37U reads 0.
Turning to G1U C18U G30U, the self-cleavage was 0.24.
Under G1U C18U G30C stands 0.11; under G1U C15U U34G, 0.02; under G1U G2C G33C G36C G40A, 0.02.
With G1U U9A G22A A25G C46A, the self-cleavage worked out at 0.05.
For the variant G1U G5U A14C, the self-cleavage stood at 0.06.
The result for G1U G5C A14U C18U C23U A26U G27A U32C C42G reads 0.02; that for G1U C18A G29U, 0.87.
Under G1U U9A U28A stands 0.01; under G1U U9A C37A, 0.09; under G1U C15A G27C, 0.03.
The result for G1U C15A G27U C31U G40C reads 0.02; that for G1U C18G C46A, 0.07; that for G1U G29C G36U, 0.03.
With G1U U9A G22C, the self-cleavage stood at 0.03.
G1U G7U A11U U20G A24G G27C G40U: the self-cleavage is 0.
Turning to G1U G2U C3U, the self-cleavage amounted to 0.34.
With G1U C18A U28A G30U A39G, the self-cleavage amounted to 0.01.
The result for G1U C15G G21U A25G G30U reads 0; that for G1U U9G U34A, 0.01; that for G1U C31A C46U, 0.06.
G1U C18A G35U: the self-cleavage turned out to be 0.01.
Under G1U G33A C37A G40A stands 0.04.
Under G1U G2A G5A G36A G40C stands 0.08; under G1U G21U G33A, 0.02; under G1U G27A G30A, 0.18.
Under G1U C18G G21C U34C stands 0.01; under G1U C23A C45A, 0.97.
Take G1U U9A A16G G30U C46A: the self-cleavage was 0.02.
The result for G1U G7C U9A A16U U28A C42U reads 0.04; that for G1U C37G G44A, 0.2.
As to G1U G5U G36U A41C C46A, the self-cleavage is 0.03.
The result for G2A A4G C15U A26U G29A G40C reads 0.6.
In the case of G2A A4C G17C A39C, the self-cleavage amounted to 0.03.
The result for G1U G5C C10A U28A reads 0.01; that for G1U G33U G36U A41C, 0.02.
G1U G5U C10A C23A C45G: the self-cleavage stood at 0.03.
In the case of G1U G22A U32G, the self-cleavage was 0.17.
Under G1U G30C U32C stands 0.13; under G1U G7C C13A U20A G27C C46G, 0.02.
Consider G1U G7A C37U U38C, for which the self-cleavage amounted to 0.11.
The result for G1U G5U U34G reads 0.03; that for G2A A4C C10U U34C C37U, 0.04.
The result for G1U G2A C37A reads 0.07.
The result for G1U G21C G35U G40U reads 0.07.
Turning to G1U U28G A39G C42A C45G, the self-cleavage was determined as 0.01.
Consider G1U C31A C37U C45U, for which the self-cleavage came to 0.03.
Under G1U G7A G21U G27A G40A stands 0.01; under G1U C23G G44U, 0.09; under G1U C18A G29U U32A, 0.02.
The result for G1U G5U G27A U38C C42G reads 0.13; that for G2A A4C G19A U20G U34G G44U, 0.01; that for G1U U34A C42A C45U, 0.01.
The result for G1U G17A G21U reads 0.58.
For the variant G1U G35A C37A, the self-cleavage amounted to 0.06.
Under G1U G5U C8A G19C G40A stands 0.03.
Regarding G1U G2U C10A G21U A26C, the self-cleavage worked out at 0.01.
Under G1U G5A A14C U38G C45A stands 0.03; under G1U G7C C15U C18G, 0.02; under G2A A4C G7A C31U G36U, 0.17.
Under G2A A4G C13G G40U C46U stands 0.08; under G1U G5U A11C U34A C45U, 0.01.
Take G1U C18G C42A: the self-cleavage is 0.
The result for G2A A4C C42A U43G reads 0.02; that for G1U G21U C37A, 0.02.
Under G2A A4C A11U A12G A16U G17C C31A stands 0.01; under G1U G5C C8G U34G, 0.04.
With G1U G29U U34G, the self-cleavage came out at 0.05.
Under G1U C15U A26C stands 0.12; under G1U C15U A26G, 0.06; under G1U G5C G35U, 0.03.
Under G1U G21C U32A G33U G36C stands 0.03.
The result for G1U G2U C3A G22U G44A reads 1.
For the variant G1U G5U G36U, the self-cleavage was determined as 0.07.
The result for G2A A4G A12G U38A A41G reads 0.05.
On to G1U C15A G44C, for which the self-cleavage worked out at 0.06.
As to G2A A4G A6U G19A C46A, the self-cleavage is 0.54.
Under G1U G5A C13U G44U C45A stands 0.04; under G1U U20G C37A, 0.03; under G1U G33U U38C A41C U43A, 0.02.
For G1U G19A C45G C46U, the self-cleavage was determined as 0.24.
Take G1U G33A G44C: the self-cleavage turned out to be 0.05.
Under G1U G35U G40U stands 0.05.
The result for G1U G19A G35U U43A C45U C46A reads 0.05; that for G1U G21C G33U, 0.07; that for G1U G17A G30A, 0.06.
Under G1U G19U G33U stands 0.02; under G1U G27A A39C, 0.04.
Turning to G1U G19A A26C C31U C42U, the self-cleavage is 0.04.
Under G1U C18G G27C stands 0.07.
Under G1U U32G U34C C46A stands 0.01; under G1U G33U G44U, 0.05.
Turning to G1U G2C G30A C31A, the self-cleavage is 0.02.
The result for G1U G17A G35U C42A G44A reads 0.01; that for G1U G5A A12C G30U, 0.04; that for G1U G21C C46A, 0.32.
Under G1U G17U A41G C42G stands 0.
As to G1U G17C C31G C45U, the self-cleavage was 0.07.
As for G1U U32A C37U, the self-cleavage stood at 0.05.
Turning to G1U G30A G33U A39U C45G, the self-cleavage stood at 0.05.
The result for G1U C15A C18A C23A reads 0.03; that for G1U G5U G21C G40A A41C, 0.04; that for G1U G2U C31A, 0.02.
On to G2A A4C G30A, for which the self-cleavage turned out to be 0.06.
In the case of G1U G35A U43G, the self-cleavage was found to be 0.01.
For G2A A4G A6U, the self-cleavage was 0.3.
On to G1U G5U A24G A39U, for which the self-cleavage was 0.01.
Turning to G1U G35U A41G, the self-cleavage was 0.12.
Consider G1U G7C G33C, for which the self-cleavage came to 0.07.
Under G1U C31A G36C U38A stands 0.01; under G1U U28A A41C, 0.01; under G2A A4C G33A, 0.09.
Under G2A A4C G33U stands 0.07; under G1U G22A U28C G29U, 0.13.
Under G1U U20G U28G stands 0.15; under G1U C18A G27C G36C G40U G44U, 0.
G1U C23A U32G G33C: the self-cleavage was 0.04.
On to G1U U9C C18U G29C G33A G36A, for which the self-cleavage came out at 0.01.
As to G1U G35A G36A U38G A39U, the self-cleavage was 0.1.
As to G1U U9A A39G, the self-cleavage was found to be 0.
G1U G29A U43G C46U: the self-cleavage came out at 0.02.
As for G1U G21C C23U A24U, the self-cleavage was 0.56.
On to G1U G22C C46G, for which the self-cleavage is 0.4.
Under G1U G30A U34A stands 0.09; under G1U G7U C8G A39G, 0.19; under G1U G5U U34C U38C C42A, 0.02.
The result for G1U G36A A39G reads 0.02; that for G1U U20A G21C, 0.03; that for G1U C37G C42A, 0.
The result for G1U C18G A24C reads 0.12; that for G1U G2C C8G C37A, 0.01.
G1U G27C U34A C37U: the self-cleavage is 0.01.
G1U C23A U34A C45G: the self-cleavage was determined as 0.02.
G1U G5U U38C: the self-cleavage was determined as 0.02.
As to G1U G22U A24G G30A, the self-cleavage was determined as 0.21.
Consider G1U U34C C45U, for which the self-cleavage was determined as 0.08.
Take G1U G5C C13U: the self-cleavage amounted to 0.04.
Regarding G1U C18A C23U G35U, the self-cleavage was 0.05.
Under G1U G17C U34G G40A C45U stands 0.01.
The result for G1U G30C U38A reads 0.1.
Under G1U C15A U20A stands 0.07; under G1U G7U C8U G29A, 0.02; under G1U G5A G17C G19U G29U, 0.08.
On to G1U U9C U28A, for which the self-cleavage stood at 0.02.
The result for G1U G30A A41C C42G reads 0.03; that for G1U G17U C18G U28A, 0.02.
For G1U G30C G40U, the self-cleavage was 0.07.
Under G1U G5U A11C G21C stands 0.01.
On to G1U G27A G36A, for which the self-cleavage turned out to be 0.1.
As to G1U G19U G40U, the self-cleavage was 0.07.
The result for G1U G19C C45U reads 0.29.
Take G1U C15G G36U: the self-cleavage stood at 0.02.

The values above are taken from the RNAGym collection of RNA variant scans (doi:10.7554/elife.90254).
